# According to the supplement of paper PMC11741623:
# The other results are listed elsewhere or left out. Interaction screen of human proteins with wild-type SARS-CoV-2 proteins by split-DHFR complementation in yeast, 1 µg/mL methotrexate. Value = fitness of the pair (three or more lineages) minus that of the viral protein without a human partner, on a scale set by negative (0) and fused positive (1) controls, mean of up to three cultures; higher = more likely to interact. Active = false discovery rate below 0.05 (one-sided t-test) in at least one culture. Nearly all pairs are not hits, and differences among them are mostly noise (correlation between cultures about 0.3); most hits were seen in one culture only. Human sequences are the Swiss-Prot entries looked up by gene name; the clone may be another isoform. NSP2 values were corrected by the authors for a growth advantage. Listed are human proteins with a hit and a random twelfth of the others.
# B1: TUBB, P07437 (protein)
# chain: MREIVHIQAGQCGNQIGAKFWEVISDEHGIDPTGTYHGDSDLQLDRISVYYNEATGGKYVPRAILVDLEPGTMDSVRSGPFGQIFRPDNFVFGQSGAGNNWAKGHYTEGAELVDSVLDVVRKEAESCDCLQGFQLTHSLGGGTGSGMGTLLISKIREEYPDRIMNTFSVVPSPKVSDTVVEPYNATLSVHQLVENTDETYCIDNEALYDICFRTLKLTTPTYGDLNHLVSATMSGVTTCLRFPGQLNADLRKLAVNMVPFPRLHFFMPGFAPLTSRGSQQYRALTVPELTQQVFDAKNMMAACDPRHGRYLTVAAVFRGRMSMKEVDEQMLNVQNKNSSYFVEWIPNNVKTAVCDIPPRGLKMAVTFIGNSTAIQELFKRISEQFTAMFRRKAFLHWYTGEGMDEMEFTEAESNMNDLVSEYQQYQDATAEEEEDFGEEAEEEA
# B2: DACH2, Q96NX9 (protein)
# chain: MAVSASPVISATSSGAGVPGGLFRAEPLYSTPREPPRLTPNMINSFVVNNHSNSAGGGGRGNTNTNECRMVDMHGMKVASFLMDGQELICLPQVFDLFLKHLVGGLHTVYTKLKRLDISPVVCTVEQVRILRGLGAIQPGVNRCKLITRKDFETLFTDCTNARRKRQMTRKQAVNSSRPGRPPKRSLGVLQENARLLTHAVPGLLSPGLITPTGITAAAMAEAMKLQKMKLMAMNTLQGNGSQNGTESEPDDLNSNTGGSESSWDKDKMQSPFAAPGPQHGIAHAALAGQPGIGGAPTLNPLQQNHLLTNRLDLPFMMMPHPLLPVSLPPASVAMAMNQMNHLNTIANMAAAAQIHSPLSRAGTSVIKERIPESPSPAPSLEENHRPGSQTSSHTSSSVSSSPSQMDHHLERMEEVPVQIPIMKSPLDKIQLTPGQALPAGFPGPFIFADSLSSVETLLTNIQGLLKVALDNARIQEKQIQQEKKELRLELYREREIRENLERQLAVELQSRTTMQKRLKKEKKTKRKLQEALEFESKRREQVEQALKQATTSDSGLRMLKDTGIPDIEIENNGTPHDSAAMQGGNYYCLEMAQQLYSA
# B3: CYTIP, O60759 (protein)
# chain: MSLQRLLQHSSNGNLADFCAGPAYSSYSTLTGSLTMDDNRRIQMLADTVATLPRGRKQLALTRSSSLSDFSWSQRKLVTVEKQDNETFGFEIQSYRPQNQNACSSEMFTLICKIQEDSPAHCAGLQAGDVLANINGVSTEGFTYKQVVDLIRSSGNLLTIETLNGTMILKRTELEAKLQVLKQTLKQKWVEYRSLQLQEHRLLHGDAANCPSLENMDLDELSLFGPLPGPGPALVDRNRLSSESSCKSWLSSMTMDSEDGYQTCVSEDSSRGAFSRQTSTDDECFIPKEGDDFLRRSSSRRNRSISNTSSGSMSPLWEGNLSSMFGTLPRKSRKGSVRKQLLKFIPGLHRAVEEEESRF
# B4: CNPY3, Q9BT09 (protein)
# chain: MDSMPEPASRCLLLLPLLLLLLLLLPAPELGPSQAGAEENDWVRLPSKCEVCKYVAVELKSAFEETGKTKEVIGTGYGILDQKASGVKYTKSDLRLIEVTETICKRLLDYSLHKERTGSNRFAKGMSETFETLHNLVHKGVKVVMDIPYELWNETSAEVADLKKQCDVLVEEFEEVIEDWYRNHQEEDLTEFLCANHVLKGKDTSCLAEQWSGKKGDTAALGGKKSKKKSSRAKAAGGRSSSSKQRKELGGLEGDPSPEEDEGIQKASPLTHSPPDEL
# Biological target: SARS-CoV-2 E
# Experiment: yeast fitness gain over the viral ORF with no human partner (scaled fitness); higher = more likely to interact
# Experimental: (§1)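 Split mouse DHFR complementation in pooled diploid yeast: human ORFeome clones carry one fragment and viral ORFs the other; barcoded lineages compete in 1 µg/mL methotrexate and fitness is read by barcode sequencing in up to three cultures.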
row,Binder,yeast fitness gain
1,B1,inactive: 0.0361
2,B2,inactive: 0.0494
3,B3,inactive: 0.0656
4,B4,inactive: 0.00608

# Biological target: SARS-CoV-2 NSP4
# Experiment: as above
# Experimental: as §1
row,Binder,yeast fitness gain
1,B1,inactive: -0.00279
2,B2,inactive: 0.0512
3,B4,inactive: 0.0146

# Biological target: SARS-CoV-2 M
# Experiment: as above
# Experimental: as §1
row,Binder,yeast fitness gain
1,B2,inactive: 0.00136
2,B3,inactive: 0.0659
3,B4,inactive: -0.0779

# Biological target: SARS-CoV-2 NSP1
# Experiment: as above
# Experimental: as §1
row,Binder,yeast fitness gain
1,B2,inactive: -0.0377
2,B3,inactive: -0.0361
3,B4,inactive: 0.00233

# Biological target: SARS-CoV-2 NSP10
# Experiment: as above
# Experimental: as §1
row,Binder,yeast fitness gain
1,B2,inactive: 0.0315
2,B3,inactive: 0.0436
3,B4,inactive: -0.0367

# Biological target: SARS-CoV-2 NSP12
# Experiment: as above
# Experimental: as §1
row,Binder,yeast fitness gain
1,B2,inactive: -0.00558
2,B3,inactive: 0.0129
3,B4,inactive: 0.0372

# Biological target: SARS-CoV-2 NSP13
# Experiment: as above
# Experimental: as §1
row,Binder,yeast fitness gain
1,B2,inactive: 0.0398
2,B3,inactive: -0.0408
3,B4,inactive: 0.0484

# Biological target: SARS-CoV-2 NSP14
# Experiment: as above
# Experimental: as §1
row,Binder,yeast fitness gain
1,B2,inactive: -0.102
2,B4,inactive: -0.255

# Biological target: SARS-CoV-2 NSP15
# Experiment: as above
# Experimental: as §1
row,Binder,yeast fitness gain
1,B2,inactive: -0.00658
2,B3,inactive: 0.0146
3,B4,inactive: 0.0324

# Biological target: SARS-CoV-2 NSP16
# Experiment: as above
# Experimental: as §1
row,Binder,yeast fitness gain
1,B2,inactive: 0.0532
2,B3,inactive: -0.0177
3,B4,inactive: -0.06

# Biological target: SARS-CoV-2 NSP2
# Experiment: as above
# Experimental: as §1
row,Binder,yeast fitness gain
1,B2,inactive: -0.119
2,B3,inactive: -0.0764
3,B4,inactive: -0.0923

# Biological target: SARS-CoV-2 NSP5
# Experiment: as above
# Experimental: as §1
row,Binder,yeast fitness gain
1,B2,inactive: 0.00101
2,B3,inactive: 0.00197
3,B4,inactive: -0.0128

# Biological target: SARS-CoV-2 NSP6
# Experiment: as above
# Experimental: as §1
row,Binder,yeast fitness gain
1,B2,inactive: 0.0483
2,B3,inactive: 0.0398
3,B4,inactive: -0.0261

# Biological target: SARS-CoV-2 NSP7
# Experiment: as above
# Experimental: as §1
row,Binder,yeast fitness gain
1,B2,inactive: -0.0129
2,B3,inactive: -0.0645
3,B4,inactive: 0.0717

# Biological target: SARS-CoV-2 NSP8
# Experiment: as above
# Experimental: as §1
row,Binder,yeast fitness gain
1,B2,inactive: 0.0352
2,B3,inactive: 0.0361
3,B4,inactive: -0.00393

# Biological target: SARS-CoV-2 NSP9
# Experiment: as above
# Experimental: as §1
row,Binder,yeast fitness gain
1,B2,inactive: 0.0672
2,B3,inactive: -0.0162
3,B4,inactive: 0.0447

# Biological target: SARS-CoV-2 ORF10
# Experiment: as above
# Experimental: as §1
row,Binder,yeast fitness gain
1,B2,inactive: 0.0461
2,B3,inactive: -0.0575
3,B4,inactive: 0.00349

# Biological target: SARS-CoV-2 ORF3A
# Experiment: as above
# Experimental: as §1
row,Binder,yeast fitness gain
1,B2,inactive: 0.0855
2,B3,inactive: -0.0584
3,B4,inactive: 0.0703

# Biological target: SARS-CoV-2 ORF3B
# Experiment: as above
# Experimental: as §1
row,Binder,yeast fitness gain
1,B2,inactive: 0.0199
2,B3,inactive: 0.00687
3,B4,inactive: 0.0377

# Biological target: SARS-CoV-2 ORF6
# Experiment: as above
# Experimental: as §1
row,Binder,yeast fitness gain
1,B2,inactive: 0.0275
2,B3,inactive: -0.0133
3,B4,inactive: 0.00311

# Biological target: SARS-CoV-2 ORF7A
# Experiment: as above
# Experimental: as §1
row,Binder,yeast fitness gain
1,B2,inactive: 0.0442
2,B3,inactive: -0.0382
3,B4,inactive: 0.035

# Biological target: SARS-CoV-2 ORF7B
# Experiment: as above
# Experimental: as §1
row,Binder,yeast fitness gain
1,B2,inactive: 0.0641
2,B3,inactive: -0.0137
3,B4,inactive: 0.0113

# Biological target: SARS-CoV-2 ORF8
# Experiment: as above
# Experimental: as §1
row,Binder,yeast fitness gain
1,B2,inactive: 0.0174
2,B3,inactive: 0.00764
3,B4,inactive: 0.0134

# Biological target: SARS-CoV-2 ORF9B
# Experiment: as above
# Experimental: as §1
row,Binder,yeast fitness gain
1,B2,inactive: 0.0489
2,B3,inactive: -0.0495
3,B4,inactive: 0.0136

# Biological target: SARS-CoV-2 ORF9Bwu (the 73-codon ORF)
# Experiment: as above
# Experimental: as §1
row,Binder,yeast fitness gain
1,B2,inactive: 0.0767
2,B3,inactive: -0.181
3,B4,inactive: 0.0408

# Biological target: SARS-CoV-2 S
# Experiment: as above
# Experimental: as §1
row,Binder,yeast fitness gain
1,B2,inactive: 0.0325
2,B3,inactive: -0.0473
3,B4,inactive: -0.0339

# Biological target: SARS-CoV-2 N
# Experiment: as above
# Experimental: as §1
row,Binder,yeast fitness gain
1,B4,inactive: 0.0447
